# In ChEMBL document CHEMBL1201862, “PubChem BioAssay data set” (2004):
# Tested on: NCI-H322M
# Assay: NCI tumour cell line growth inhibition, 48 h
row,Structure (SMILES),GI50
1,Oc1[nH]c(Nc2ccc(Cl)cc2)nc2ncnc1-2,inactive: 62.2 µM
2,CSCSCC(CO)NC(=O)/C=C/c1c(C)nc(O)nc1O (stereo unspecified),inactive: 20.2 µM
3,CN(C)Cc1ccc(C(C)(C)C)cc1-c1cc(C(C)(C)C)ccc1CN(C)C,inactive: 91.8 µM
4,O=C1Nc2ccccc2C1=Nc1ccc(S(=O)(=O)Nc2nccs2)cc1,inactive: > 100 µM
5,COc1ccc(OC)c(-c2nc(O)c3ccccc3n2)c1,inactive: > 100 µM
6,c1ccc2c(c1)-c1nc3ccccc3cc1C2N1CCOCC1 (stereo unspecified),inactive: > 100 µM
7,Cn1cnc([N+](=O)[O-])c1Sc1nc(N)nc2c1ncn2Cc1ccccc1,inactive: 25 µM
8,CN(C)c1ccc(Cc2cc3c(O)ccc(O)c3cc(Cc3ccc(N(C)C)cc3)c2=O)cc1,inactive: > 64.7 µM
9,CC(C)(N)CO[C@H]1C[C@H]2CC[C@@]1(C)C2(C)C,inactive: 18.6 µM
10,COc1ccc(C2=CC(c3ccc4c(c3)OCO4)c3c(c4ccccc4oc3=O)O2)cc1OC (stereo unspecified),inactive: 3.36 µM
11,CCOC(=O)N[C@H]1CCc2cc(OC)c(OC)c(OC)c2-c2ccc(SC)c(=O)cc21,active: < 0.01 µM
12,COC(=O)C1CC(C(=O)OC)c2nc3cc([N+](=O)[O-])ccc3nc21 (stereo unspecified),inactive: 77.1 µM
13,O=C(N/C(=C\c1ccccc1[N+](=O)[O-])c1nc2ccccc2[nH]1)c1ccccc1,inactive: 93.8 µM
14,Nc1ccccc1SC(C[N+](=O)[O-])c1ccc2c(c1)OCO2 (stereo unspecified),inactive: 10.9 µM
15,C/C(=N\NC1=NCCN1)c1cn(C2=NCCN2)nc1C,inactive: > 100 µM
16,CC(C)C1OC(=O)C(Cc2ccccc2)N(C)C(=O)C(C(C)C)OC(=O)C(Cc2ccccc2)N(C)C(=O)C(C(C)C)OC(=O)C(Cc2ccccc2)N(C)C1=O (stereo unspecified),inactive: 1.52 µM
17,CC(=O)Oc1ccc2c(c1)C(=O)c1nc(C)c(C)nc1C2=O,inactive: 53.3 µM
18,CCN(CC)Cc1cc(/N=N\c2c(O)ccc3c(/N=N\c4ccc(O)c(CN(CC)CC)c4)c(O)ccc23)ccc1O,inactive: 5.65 µM
19,CC1CC(c2ccc(Cl)cc2)=Nc2ccccc2S1 (stereo unspecified),inactive: > 100 µM
20,CCOC(=O)/C=C\[C@H]1OC(C)(C)O[C@H]1[C@H](O)[C@H]1COC(C)(C)O1,inactive: > 100 µM
21,Cn1c(=O)c2/c(n(C)c1=O)=N\C=c1\c(=O)n(C)c(=O)n(C)\c1=N\C=2,inactive: > 100 µM
22,COc1c(Br)cc2c(c1OC)C(Br)CCC(Br)(Br)C2=O (stereo unspecified),inactive: 4.81 µM

row,Structure (SMILES),GI50
1,CC(=O)NNc1nc(C)c(C(/C=C/c2ccccc2O)=N/N=C(N)N)s1,inactive: > 100 µM
2,N#Cc1c(N)n(-c2cccc(C(=O)O)c2)c(=O)c2cc([N+](=O)[O-])ccc12,inactive: > 100 µM
3,Nc1c(-c2ccccc2-c2c(N)[n+]([O-])c3ccccc3[n+]2[O-])[n+]([O-])c2ccccc2[n+]1[O-],inactive: 7.87 µM
4,O=C1C(OC(=O)c2ccccc2)=C(c2ccc(O)cc2)C(=O)C(OC(=O)c2ccccc2)=C1c1ccc(O)cc1,inactive: 67.5 µM
5,CO[C@H]1ON=C(c2c(C)cc(C)cc2C)[C@@H]1C1(c2ccccc2)ON=C(c2c(C)cc(C)cc2C)O1 (stereo partly specified),inactive: > 100 µM
6,CCOC(=O)C(C)c1nc2cc(N3CCN(C)CC3)c(F)cc2[nH]c1=O (stereo unspecified),inactive: > 100 µM
7,O=c1c2cc(I)ccc2nc(Sc2ncccc2[N+](=O)[O-])n1Cc1ccccc1,inactive: 39.7 µM
8,COc1nc(NC2OCC(O)C(O)C2O)c(NC2OCC(O)C(O)C2O)c(=O)n1C (stereo unspecified),inactive: > 100 µM
9,CCOC(=O)/C(=C/c1cccc(OC)c1)N(CC)CC,inactive: > 100 µM
10,Cc1cc(C)c2c(=O)n(CN3CCN(c4ccccc4)CC3)sc2n1,inactive: 45.7 µM
11,O=C1C[C@@H](Sc2ccccc2)C2(OCCO2)[C@H]2ON3CCC[C@@H]3[C@@H]12,active: 0.21 µM
12,CC(C)/C(Cl)=N/OC(=O)Nc1ccc(F)c(Cl)c1,inactive: 17.7 µM
13,O=C1CCC2CCOc3ccc(O)c1c32 (stereo unspecified),inactive: > 100 µM
14,COc1ccc(/C=N/c2c(O)ccc3ccccc23)cc1OC,inactive: > 100 µM
15,CC(=O)NC(CCCN(Cc1ccccc1)C(=O)N(CCCl)N=O)C(=O)NCc1ccccc1 (stereo unspecified),inactive: 49.5 µM
16,Cc1ccc(C(=O)N/N=C(\N=N\c2ccccc2Cl)c2ccc(N(C)C)cc2)cc1,inactive: 41.3 µM
17,O=C1C(=O)C2(CC1S(=O)(=O)c1ccccc1)c1ccccc1-c1ccccc12 (stereo unspecified),inactive: 23 µM
18,CCCCCc1c(CCCC)c(=O)[nH]c2cc(CNCC(OC)OC)ccc12,inactive: 13.9 µM
19,COc1ccccc1C1C(C(=O)Nc2ccccc2)=C(C)NC(C)=C1C(=O)Nc1ccccc1,inactive: > 100 µM
20,O=C(N/C(=C\c1cc(Cl)ccc1Cl)c1nc2ccccc2[nH]1)c1ccccc1,inactive: 53.7 µM
21,COc1ccc2c(c1)c1nn(CCN3CCCCC3)c3ccc4c(=O)n(CCN(C)C)c(=O)n2c4c13,active: < 0.01 µM
22,CC(=O)OCc1cn(S(=O)(=O)c2ccc(C)cc2)cn1,inactive: > 100 µM

row,Structure (SMILES),GI50
1,CN/N=C(/CC(=O)c1sc(NNC(C)=O)nc1C)C(=O)Nc1ccc(OC)cc1OC,inactive: > 100 µM
2,NC(=O)C(=CN1CC(=O)NC1=S)C(N)=O,inactive: > 100 µM
3,Oc1ccccc1-c1nnc(S)n1/N=C/c1ccc(-c2ccc(Br)cc2)o1,inactive: 34.7 µM
4,CCOC(=O)C1(C(=O)OCC)C(C(C)(C)C)=C(C)c2ccccc21,inactive: 21 µM
5,CC1(C)CCCCCCC2OC2CCCCCC(C)(C)C1=O (stereo unspecified),inactive: > 57.1 µM
6,COc1ccccc1NC(=O)CC(=O)N1N=C(N2c3ccccc3Sc3ccccc32)CC1c1ccccc1 (stereo unspecified),inactive: > 100 µM
7,C=CC1(C(=O)O)CCC(C(C)(C)C)CC1 (stereo unspecified),inactive: > 100 µM
8,COc1c(C)cc2c(c1O)C1C3[C@H]4SC[C@@]5(NCCC6=C5NC5C=CC=CC65)C(=O)OCC(c5c6c(c(C)c(OC(C)=O)c54)OCO6)N3[C@@H](O)C(C2)N1C (stereo partly specified),active: 0.0133 µM
9,Clc1ccc(-c2nnc(-c3c(Cl)c(Cl)c(Cl)c(Cl)c3-c3nc4ccccc4[nH]3)o2)cc1,inactive: 97.5 µM
10,CC1SC2=NC3=C(c4ccccc4C3=O)C(c3ccc(Cl)cc3)N2C1=O (stereo unspecified),inactive: > 100 µM
11,CC(=O)c1c(C)cc2cccc(OC3OC(CO)C(O)C(O)C3O)c2c1O.CC1OC(O)C(O)C(O)C1O (stereo unspecified),inactive: > 100 µM
12,O=C1c2ccccc2-c2c1c1ccccc1c(=O)n2Cc1ccccc1,inactive: 71.4 µM
13,COc1ccc(NC2Oc3cc4c(cc3C(c3cccc(OC)c3OC)C2C)OCO4)cc1 (stereo unspecified),inactive: 19.1 µM
14,Cc1c(Cl)ccc2c1NC(=O)C2(O)CC(=O)c1ccc(Cl)cc1 (stereo unspecified),inactive: > 100 µM
15,CC1(C)OC(=O)C(C#N)=C1/C=C/c1coc2ccc(Cl)cc2c1=O,inactive: 71.4 µM
16,COC1CC(N)C(O)C(C)O1 (stereo unspecified),inactive: > 100 µM
17,Cc1nc(Nc2ccccc2Cl)sc1C(=O)CC(=O)C(N)=O,inactive: 56.8 µM
18,O=C1C2c3[nH]c4ccccc4c3C3CCCCC3C2C(=O)N1c1ccccc1 (stereo unspecified),inactive: > 100 µM
19,Cc1c(Cl)cccc1NC(=O)C(=O)C(C(=O)c1ccccc1-c1ccccc1)C1OC(=O)c2ccccc21 (stereo unspecified),inactive: 19.5 µM
20,C=C1C(=O)O[C@H]2[C@@H](O)[C@H](C)CCC/C(C)=C/CC[C@@]3(C)O[C@@H]3C[C@@H]12,inactive: 14.6 µM
21,CCn1c(=O)c(C(=O)O)c(Cl)c2cc3c(cc21)OCO3,inactive: > 100 µM
22,C=CCc1cc(OC)c2c(c1)C(OC(C)=O)CC(c1ccc(OC)c(OC)c1)O2 (stereo unspecified),inactive: > 100 µM

row,Structure (SMILES),GI50
1,FC(F)(F)c1cccc2ns[s+]c12,inactive: > 100 µM
2,Clc1ccc(CCNCCNC2(c3cc4ccccc4s3)CCCCC2)cc1Cl,inactive: 2.15 µM
3,Cc1ccc(S(=O)(=O)NN=C2C(C)(C)CC2(C)C)cc1,inactive: > 100 µM
4,NNC(=O)CC(=O)Nc1ccc(S(=O)(=O)c2ccc(NC(=O)CC(=O)NN)cc2)cc1,inactive: > 100 µM
5,COc1cc2c(cc1OC)-c1cc3cc(OC)c(OC)cc3c(C)[n+]1CC2.O=C([O-])CS(=O)(=O)O,inactive: > 100 µM
6,CCOC(=O)C12OC(CCC1=O)C(C(=O)OC)=C2C(=O)OC (stereo unspecified),inactive: > 10 µM
7,C(=N\Nc1ccccc1)/c1nc2ccccc2nc1/C=N/Nc1ccccc1,inactive: 17.4 µM
8,Cc1ccc(C)c(NC(=O)C(=O)C(C2C(C)CC(=O)C2CC(=O)O)[N+](=O)[O-])c1 (stereo unspecified),inactive: > 100 µM
9,CCOCc1c(C)cc(C)c(C2C(C(=O)c3ccccc3)N3c4ccccc4C=CC3C2(C#N)C(=O)OCC)c1C (stereo unspecified),inactive: > 100 µM
10,COc1ccc(CC(O)CN2CCOCC2)cc1 (stereo unspecified),inactive: > 100 µM
11,O=C(O)CNC(=O)C(CSC(=O)OCC1c2ccccc2-c2ccccc21)NC(=O)CCC(NC(=O)OCC1c2ccccc2-c2ccccc21)C(=O)O (stereo unspecified),inactive: 49.8 µM
12,CCCCCCCCCCCCCP(=O)(O)NCC(N)=O,inactive: > 100 µM
13,COc1cc(C2c3cc4c(cc3[C@@H](N(C)C)[C@H]3COC(=O)C23)OCO4)cc(OC)c1O (stereo partly specified),inactive: > 100 µM
14,CNC(=O)NS(=O)(=O)c1ccc(C)cc1.NS(=O)O,inactive: > 100 µM
15,O=C(OC1CCC(=C2SCCCS2)[C@H]1C1SCCCS1)c1ccccc1 (stereo partly specified),inactive: 97.7 µM
16,CC(=O)OC1CC[C@@]2(C)C(CC[C@]3(C)C2CC=C2[C@@H]4CC(C)(C)CCC4(C)CCC23C)[C@@]1(C)C(=O)O (stereo partly specified),inactive: 15.9 µM
17,CC(C)=CCC(O)C1=CC(=O)c2c(O)ccc(O)c2C1=O (stereo unspecified),inactive: 2.39 µM
18,Cc1c(N)nc([C@H](CC(N)=O)NC[C@H](N)C(N)=O)nc1C(=O)N[C@H](C(=O)N[C@H](C)[C@@H](O)CC(=O)N[C@H](C(=O)NC(O[C@@H]1O[C@@H](C)[C@@H](N)[C@@H](O)[C@H]1O)C(O)c1nc(-c2nc(C(=O)NCCCCN)cs2)cs1)[C@@H](C)O)[C@@H](O[C@@H]1O[C@@H](CO)[C@@H](O)[C@H](O)[C@@H]1O[C@H]1O[C@H](CO)[C@@H](O)[C@H](OC(N)=O)[C@@H]1O)c1c[nH]cn1 (stereo partly specified),inactive: > 50 µM
19,CC1CCC2C(C)C(=O)OC3OC4(C)CCC1C32OO4 (stereo unspecified),inactive: > 75.3 µM
20,Nc1ccc2c(c1)Nc1c3ccccc3nc3cccc-2c13,inactive: 1.31 µM

#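 All cell lines were grown in 96-well plates and treated with compound for 48 hours. GI50 marks 50% less growth.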 The source made the active and inactive calls. Rule as the data show it: active = GI50 up to about 1.1 µM and inactive = higher.
